Source: PubChem BioAssay AID1030 (National Center for Advancing Translational Sciences (NCATS), 2008)
Among all 220,000 compounds or so, about 16,000 (7.3%) were called active. Inconclusive results, whose numbers are uncertain, are shown with a selection of clear calls. Calls follow the shape of the dose curve; as a rule, active = well fitted inhibition curve with a large enough effect (not every such curve was filed as active); inconclusive = small, poorly fitted or top-dose-only effect, or another doubt; inactive = no such curve, though single readings can be large or run the other way. Potencies of inconclusive entries are left out as doubtful fits.

The compounds below were run against Aldehyde dehydrogenase 1A1 (Homo sapiens) (UniProt P00352) (assay: qHTS Assay for Inhibitors of Aldehyde Dehydrogenase 1 (ALDH1A1)). Settings: Purified ALDH1A1, NADH fluorescence, propionaldehyde substrate; series mostly up to 75.3 µM; activity, negative = inhibition: at the top concentration.
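For activity, negative = inhibition in this document: plate controls were no enzyme wells and a reference inhibitor.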
Potency is read from the fitted curve at half-maximal effect; tags tell the direction and shape of the fitted curve.

Sequence of UniProt P00352 (P00352 whole entry, looked up): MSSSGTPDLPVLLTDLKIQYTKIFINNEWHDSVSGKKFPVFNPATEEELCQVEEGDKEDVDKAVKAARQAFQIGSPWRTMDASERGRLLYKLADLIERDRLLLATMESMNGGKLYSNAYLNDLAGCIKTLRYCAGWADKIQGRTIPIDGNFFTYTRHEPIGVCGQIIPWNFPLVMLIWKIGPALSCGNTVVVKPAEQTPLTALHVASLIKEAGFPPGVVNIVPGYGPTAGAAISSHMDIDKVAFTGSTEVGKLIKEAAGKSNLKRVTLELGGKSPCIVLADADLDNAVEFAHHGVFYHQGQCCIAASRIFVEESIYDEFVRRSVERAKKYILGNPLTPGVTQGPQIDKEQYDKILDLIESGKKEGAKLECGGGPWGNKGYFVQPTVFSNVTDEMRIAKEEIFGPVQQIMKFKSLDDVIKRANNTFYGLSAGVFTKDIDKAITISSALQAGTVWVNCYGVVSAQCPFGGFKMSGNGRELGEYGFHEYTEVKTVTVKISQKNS

Compound	Potency	activity, negative = inhibition
COC(=O)Oc1ccc(/C=N/NC(=O)CSCc2ccc(Cl)cc2)cc1OC	inconclusive [inhibitor, single point]	–
CNc1c([N+](=O)[O-])cnn1-c1ccc(Cl)cc1	–	inactive: 1.1%
COc1cc(/C=N\Nc2nc3ccccc3o2)cc(OC)c1OC	–	inactive: 6.6%
COc1cnc(-c2ccccn2)nc1Sc1ccc(F)cc1	active: 7.94 µM	–
Cc1nnc(C)c2c(C)n(-c3ccccc3N)c(C)c12	inconclusive [inhibitor, single point]	–
Cc1[nH]nc(N=Cc2c(O)n(C)c(=O)n(C)c2=O)c1-c1ccccc1	inconclusive [inhibitor, full curve, poor fit]	–
CCOc1ccc(NC(=S)Nc2ccc(OC)cc2)cc1	–	inactive: 2.24%
Cc1ccc(NC(=O)Cn2cncc2-c2ccc([N+](=O)[O-])cc2)cc1C	inconclusive [inhibitor, partial curve]	–
CCOC(=O)/C(=N/Nc1ccc(C)cc1)S(=O)(=O)c1ccc(Cl)cc1	inconclusive [inhibitor, single point]	–
CCOC(=O)Cc1csc(NC(=S)NC(=O)c2ccccc2)n1	–	inactive: -18%
CCOC(=O)c1[nH]cnc1C(=O)Nc1cccc(Cl)c1	inconclusive [inhibitor, partial curve]	–
Cc1ccc(-c2nc(N/N=C/c3cccc([N+](=O)[O-])c3)c3ccccc3n2)cc1	inconclusive [inhibitor, single point]	–
CCc1cc2ccc(C)cc2nc1SCC(=O)Nc1cc(C)on1	active: 25.1 µM	–
O=c1[nH]c(=S)[nH]c2[nH]c(=S)[nH]c12	active: 10 µM	–
COc1ccc2oc(-c3ccccc3)c(C(=O)N3CCOCC3)c2c1	inconclusive [inhibitor, partial curve]	–
COc1ccc(NC(=O)CCC(=O)c2ccc(-c3ccccc3)cc2)cc1	–	inactive: 7.89%
CN(Cc1ccccc1)C(=O)NC1CCCCC1	–	inactive: 0.839%
N#CC1=C(N)Oc2[nH]c(=S)[nH]c(=O)c2C12C(=O)Nc1ccccc12 (stereo not drawn)	inconclusive [inhibitor, full curve]	–
Cc1ccc(COc2ccccc2C(=S)N2CCCC2)cc1	active: 25.1 µM	–
CCn1c(CSc2nccn2C)nc2cc(C(=O)O)ccc21	inconclusive [inhibitor, partial curve]	–
COCCNC(=O)CSc1nnc2c(Cl)cc(Cl)cn12	–	inactive: -16.5%
O=c1c(Cl)c(N/N=C/c2ccc(Cl)cc2)cnn1-c1ccccc1	inconclusive [inhibitor, single point]	–
Cc1cccc(-c2cc3c(nn2)-c2ccccc2C3=O)c1	inconclusive [inhibitor, single point]	–
COCCN(Cc1cc2cccc(C)c2[nH]c1=O)C(=O)c1ccccc1	inconclusive [inhibitor, partial curve]	–
O=C(Nc1cccc2c1C(=O)NC2=O)c1ccc(S(=O)(=O)N2CCCC2)cc1	inconclusive [inhibitor, single point]	–
CCc1ccc(-n2c(C)nc3cc(C(=O)NCc4cccnc4)ccc32)cc1	–	inactive: 3%

Compound	Potency	activity, negative = inhibition
Cc1cc2cccc(C)c2nc1SCC(=O)NCC1CCCO1 (stereo not drawn)	inconclusive [inhibitor, single point]	–
CCC1CCCCN1C(=O)CSc1nc(C)cc(C)n1 (stereo not drawn)	–	inactive: -4.6%
COc1ccccc1C1C=C(c2ccc(C)cc2)Nc2nnnn21 (stereo not drawn)	active: 14.1 µM	–
COc1ccc(-n2c(C)c([N+](=O)[O-])c3ccc(O)c(CN(C)C)c32)cc1	inconclusive [inhibitor, full curve]	–
COc1ccc(C)cc1NC(=O)CN(c1ccc(C)cc1)S(C)(=O)=O	–	inactive: -0.52%
O=C(CN1CCN(C2CCCCC2)CC1)c1ccc2cc[nH]c2c1	inconclusive [inhibitor, partial curve]	–
Cn1c(N)c(C(=O)COC(=O)C(Cc2ccccc2)NC(=O)c2ccccc2)c(=O)n(C)c1=O (stereo not drawn)	inconclusive [inhibitor, partial curve]	–
Cc1csc(Sc2ccc(S(=O)(=O)N3CCCC3)cn2)n1	–	inactive: -3.77%
COc1ccc(-c2cnc(SCC(=O)Nc3ccc4c(c3)OCO4)n2Cc2ccco2)cc1	active: 11.2 µM	–
O=c1c2c(nc3n1CCCCC3)sc1c(O)cccc12	inconclusive [inhibitor, partial curve]	–
Cc1cc(C)c(NS(=O)(=O)c2ccc(NC(=O)c3cccs3)cc2)c(C)c1	–	inactive: 2.98%
CCCOC(=S)N/C(=N\S(=O)(=O)c1ccccc1)c1ccccc1	active: 14.1 µM	–
COc1cc(OC)cc(-c2cc3nc(C)c(CCC(=O)O)c(C)n3n2)c1	inconclusive [inhibitor, single point]	–
CCOC(=O)c1cc(-c2ccccc2)sc1N	active: 11.2 µM	–
Cc1ccc2cc(CN(CC3CCCO3)C(=S)NCc3ccco3)c(=O)[nH]c2c1 (stereo not drawn)	active: 3.55 µM	–
Cc1cc(C(=O)Cn2nc(C(=O)O)c3ccccc3c2=O)c(C)n1CCc1ccc(Cl)cc1	–	inactive: 2.27%
CCC1CCCCN1C(=O)CSc1nc2c(c(=O)n(C)c(=O)n2C)n1C (stereo not drawn)	active: 12.6 µM	–
Cc1cc(C(F)(F)F)c(C#N)c(=O)[nH]1	inconclusive [inhibitor, partial curve]	–
CN1/C(=C\C(=O)CSc2cccc[n+]2[O-])C(C)(C)c2ccccc21	inconclusive [inhibitor, single point]	–
COc1ccc(CNCc2cc3c(C(C)(C)C)nn(-c4ccccc4)c3[nH]c2=O)cc1	inconclusive [inhibitor, single point]	–
Cc1cccc(-n2ncc3c(N(CCO)CCO)ncnc32)c1	–	inactive: -8.62%
COc1ccccc1N1CCN(C(=O)CSc2nc3ccccc3c(=O)n2CC2CCCO2)CC1 (stereo not drawn)	inconclusive [inhibitor, partial curve]	–
COc1ccc(C2C3=C(CCCC3=O)Nc3nc(C(F)(F)F)nn32)cc1OC (stereo not drawn)	inconclusive [inhibitor, single point]	–
COc1ccc(OC)c(C2C(C(C)=O)=C(O)C(=O)N2CCc2ccc(OC)c(OC)c2)c1 (stereo not drawn)	–	inactive: 1.94%
CCCC(C)NC(=O)c1ccc(F)cc1 (stereo not drawn)	active: 39.8 µM	–
O=C(COc1ccc([N+](=O)[O-])cc1)N(Cc1ccccc1)Cc1ccccc1	active: 14.1 µM	–

Compound	Potency	activity, negative = inhibition
COC(=O)CSc1nc2ccc(NC(=O)CSc3nnnn3Cc3ccccc3)cc2s1	active: 4.47 µM	–
Cc1ccccc1N(CC(=O)N/N=C/c1cc(Br)c(C)o1)S(C)(=O)=O	inconclusive [inhibitor, single point]	–
COc1ccc(C(=O)C(CN2CCCC2)c2ccccc2)cc1 (stereo not drawn)	active: 25.1 µM	–
CCc1cc(-c2n[nH]c(=S)n2C(C)c2ccccc2)cs1 (stereo not drawn)	active: 0.562 µM	–
CCOC(=O)C(CSCC(=O)c1ccc(Br)cc1)NC(=O)OC(C)(C)C (stereo not drawn)	inconclusive [inhibitor, partial curve]	–
COc1ccc(C(=O)/C=C/c2ccc(O)cc2)c(O)c1CC=C(C)C	–	inactive: -7.3%
Cc1oc(-c2cccc(F)c2)nc1CN1CCCCC1CCn1cccn1 (stereo not drawn)	inconclusive [inhibitor, single point]	–
CCN1CCCC1CNC(=O)c1ccc2c(=O)n(CCOC)c(=O)[nH]c2c1 (stereo not drawn)	inconclusive [inhibitor, single point]	–
O=C1C2ON(c3ccccc3)C(c3ccncc3)C2C(=O)N1c1ccc(Br)cc1 (stereo not drawn)	inconclusive [inhibitor, single point]	–
COCCOC(=O)c1c(NC(=O)CN2CCc3ccccc32)sc(C(N)=O)c1C	active: 14.1 µM	–
CCS(=O)(=O)CCSc1nc2c(cc1C#N)CCCC2	inconclusive [inhibitor, partial curve, poor fit]	–
O=C(COC(=O)c1ccccc1NC(=O)c1ccco1)NCCC1=CCCCC1	inconclusive [inhibitor, partial curve]	–
Cc1cccc(C)c1-n1c(C)cc(/C=N/NC(N)=S)c1C	inconclusive [inhibitor, single point]	–
Cc1ccc(S(=O)(=O)Nc2cccc(Cl)c2)cc1NC(=O)c1cccnc1	–	inactive: 13.8%
CCOC(=O)c1c(C)c(C(=O)N2CCc3ccccc3C2)c(C)n1CC	inconclusive [inhibitor, single point]	–
COc1cc(NC(=S)NC(=O)c2c(OC)cccc2OC)ccc1NC(=O)c1cccs1	–	inactive: -8.12%
Cn1c(CNc2ccccc2O)nc2ccccc21	–	inactive: 1.9%
CN(c1ccccc1)S(=O)(=O)c1cccc(NC(=O)CSc2nncs2)c1	–	inactive: 1.5%
CCSc1nc(C2CC2)cc(-c2ccco2)c1C#N	inconclusive [inhibitor, single point]	–
CC1=C(C)/C(=N\OS(=O)(=O)c2ccccc2)C=CC1=O	inconclusive [inhibitor, partial curve]	–
Cn1c(CCc2nc3ccccc3[nH]2)n[nH]c1=S	inconclusive [inhibitor, single point]	–
O=C(NCCCN1CCOCC1)c1ccc(-c2ccc(Cl)cc2)o1	inconclusive [inhibitor, partial curve]	–
COc1ccc(OC)c(N=c2ssnc2Cl)c1	active: 1.58 µM	–
CC(OC(=O)c1cccs1)C(=O)NCc1ccccc1 (stereo not drawn)	–	inactive: 4.75%
Cc1ccnc(NC(=O)Nc2ccc(Br)cc2Cl)c1	–	inactive: 4.38%
COC(=O)C1=C(C)N(c2cccc(Cl)c2)C(=O)C1	inconclusive [inhibitor, partial curve]	–
